# Measurements from PubChem BioAssay AID485281 (National Center for Advancing Translational Sciences (NCATS), 2010).
# Where “and” joins values, the source holds several entries; their conditions need not be identical. Equal entries are not always repeated. About 260 (0.074%) of roughly 350,000 compounds were called active. This list was built around the results that the source calls inconclusive (neither active nor inactive); the mix of calls is not that of the screen. The call rests on the fitted dose curve; in most records, active means well fitted inhibition curve with a large enough effect; inconclusive means small, poorly fitted or top-dose-only effect; inactive means no such curve, though single readings can be large or run the other way. Where the call is inconclusive, the potency comes from a doubtful curve fit.
# Target: Ferritin light chain (Equus caballus) (UniProt P02791)
# Chain of UniProt P02791 (P02791 whole entry, looked up): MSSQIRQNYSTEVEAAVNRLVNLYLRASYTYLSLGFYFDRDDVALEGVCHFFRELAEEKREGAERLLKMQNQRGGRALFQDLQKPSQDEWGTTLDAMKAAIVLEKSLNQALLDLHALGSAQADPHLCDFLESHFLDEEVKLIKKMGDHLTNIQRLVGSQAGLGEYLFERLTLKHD
# Experiment: qHTS Assay for Identification of Novel General Anesthetics; further: nearly all actives have a fitted effect of over 20% in size
# Settings: apoferritin/1-aminoanthracene competitive binding, fluorescence; series mostly up to 77.5 µM
# Procedure, shortened: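 Apoferritin-based anesthetic binding model; compound displacement of fluorescent 1-AMA measured as endpoint fluorescence after 10 minutes at room temperature, scaled to free-ligand and complex controls.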
# Potency means the concentration at half of the fitted maximal effect; tags describe the fitted curve by direction and shape.
row,Structure (SMILES),Potency
1,COc1ccc(C(C)=O)c2c(O)cccc12,"inconclusive: 25.1 µM [inhibitor, partial curve]"
2,CSc1nnc(NC(=O)C23CC4CC(CC(C4)C2)C3)s1,"inconclusive: 7.08 µM [inhibitor, full curve, poor fit]"
3,CC1CCCN(S(=O)(=O)c2ccc(NC(=O)CCN3C(=O)c4ccccc4C3=O)cc2)C1 (configuration not stated),"inconclusive: 12.6 µM [inhibitor, partial curve]"
4,Cc1ccc(NC(=O)Nc2nnc(N(C)Cc3ccccc3)s2)cc1,"inconclusive: 14.1 µM [inhibitor, partial curve]"
5,COc1ccc2c(=O)c(-c3cnn(-c4ccccc4)c3)c(C)oc2c1,"inconclusive: 25.1 µM [inhibitor, partial curve]"
6,CCC1=NN(C(=O)c2ccccc2O)C(O)(c2ccccc2)C1 (configuration not stated),inactive
7,CN(C(=O)c1cc(-c2ccccc2O)on1)c1ccccc1,"inconclusive: 20 µM [inhibitor, partial curve]"
8,Cc1cccc(CN2CCC(C(=O)Nc3ccc(-n4nc(C)cc4C)cc3)CC2)n1,"inconclusive: 31.6 µM [inhibitor, partial curve]"
9,O=C(NC1CCN(C(=O)N2c3ccccc3Sc3ccccc32)CC1)c1ccccc1F,"inconclusive: 14.1 µM [inhibitor, partial curve]"
10,Cc1ccc(NS(=O)(=O)c2cccc(C(=O)OCC(=O)NCc3ccco3)c2)cc1,"inconclusive: 31.6 µM [inhibitor, partial curve]"
11,Cc1cc(C)c2oc(C(=O)N(Cc3ccc(F)cc3)C3CCS(=O)(=O)C3)cc(=O)c2c1 (configuration not stated),"inconclusive: 0.355 µM [inhibitor, full curve, poor fit]"
12,O=C(NCc1ccc2c(c1)OCO2)c1ccc(S(=O)(=O)N2CCCCC2)cc1,"inconclusive: 15.8 µM [inhibitor, partial curve]"
13,O=C(c1ccccc1)c1ccc(OCC(O)CN2CCN(S(=O)(=O)N3CCCCC3)CC2)cc1 (configuration not stated),"inconclusive: 17.8 µM [inhibitor, partial curve, poor fit]"
14,COc1ccccc1C/C(N)=N/OC(=O)c1ccco1,inactive
15,CN(C)c1ccc(NC(=O)c2cccc(N3C(=O)C4C5C=CC(C5)C4C3=O)c2)cc1 (configuration not stated),"inconclusive: 31.6 µM [inhibitor, partial curve]"
16,CCCCn1c(C23CC4CC(CC(C4)C2)C3)n[nH]c1=S,"inconclusive: 25.1 µM [inhibitor, single point]"
17,O=C(CN1C(=O)c2cccnc2Oc2ccc(Cl)cc21)Nc1ccc(F)cc1,"inconclusive: 22.4 µM [inhibitor, partial curve]"
18,COc1ccccc1CCNC(=O)CCc1c(C)c2cc3c(C)coc3c(C)c2oc1=O,"inconclusive: 2.82 µM [inhibitor, full curve, poor fit]"
19,O=C(c1ccc(F)cc1)N1CCN(C(=O)c2cccnc2)CC1,inactive
20,[2H]c1c([2H])c([2H])c(C(=O)c2sc(N3CCCCCC3)nc2-c2ccccc2)c([2H])c1[2H],inactive
21,Cc1cccnc1CN1CCN(C(=O)c2cc(COc3ccc4ncccc4c3)on2)CC1,inactive
22,CCOC(=O)C1=C(CSc2nc(C)ccc2C#N)OC(N)=C(C#N)C1c1cccc(OC)c1OC (configuration not stated),"inconclusive: 28.2 µM [inhibitor, partial curve]"
23,COc1ccccc1CNS(=O)(=O)c1ccc(S(=O)(=O)NC2CC2)cc1,inactive

row,Structure (SMILES),Potency
1,CCCCNC(=O)c1onc(CSc2nc3ccccc3[nH]2)c1C(=O)NCCCC,"inconclusive: 39.8 µM [inhibitor, single point]"
2,COc1ccc(/C=C(/NC(=O)c2ccccc2)C(=O)N/N=C/c2ccncc2)c(OC)c1,"inconclusive: 31.6 µM [inhibitor, single point]"
3,CCOC(=O)c1cnn(-c2cc(C)c3ccccc3n2)c1N,inactive
4,CS(=O)(=O)Cc1cccc(C(=O)NN(c2ccccc2)c2ccccc2)c1,inactive
5,Cc1ccc(S(=O)(=O)N2CCOCC2)cc1NC(=O)COc1ccc2c(C)cc(=O)oc2c1,inactive
6,O=C(Nc1cccc(Cl)c1)c1c(NC(=O)C(F)(F)F)sc2c1CCCC2,"inconclusive: 28.2 µM [inhibitor, single point]"
7,CC1=C(C(=O)Nc2ccc(CC(=O)NCc3ccc(OC(C)C)cc3)cc2)SCCO1,"inconclusive: 31.6 µM [inhibitor, single point]"
8,COc1ccccc1CC(=O)NC12CC3CC(CC(C3)C1)C2,"inconclusive: 11.2 µM [inhibitor, partial curve]"
9,Cc1[nH]c2ccc(-c3n[nH]c(=S)n3C)cc2c1C,inactive
10,Cc1ccc(Cn2nnc3c(=O)[nH]c(C4CCN(S(=O)(=O)/C=C/c5ccccc5)CC4)nc32)cc1,"inconclusive: 14.1 µM [inhibitor, partial curve]"
11,CC(C)c1ccc(/C=N/n2c(COc3ccccc3)n[nH]c2=S)cc1,"inconclusive: 50.1 µM [inhibitor, single point]"
12,CCOCCOC(=O)c1ccc(NC(=O)/C=C/c2ccc(OC)c(OC)c2)cc1,inactive
13,Cc1noc2ncnc(Oc3ccc(Cl)cc3Cl)c12,"inconclusive: 15.8 µM [inhibitor, partial curve]"
14,Nc1nonc1C(=O)NCCc1ccccc1,active: 17.8 µM
15,Cc1ccc(C2C=C(c3ccc4c(c3)OCO4)Nc3ncnn32)cc1 (configuration not stated),inactive
16,CCCCn1c(/C=N/Nc2nc3ccccc3[nH]2)nc2ccccc21,inactive
17,CC1Cc2ccccc2N1CC(=O)NC(=O)NC1CCCCC1 (configuration not stated),"inconclusive: 31.6 µM [inhibitor, partial curve]"
18,COc1ccccc1N1CCN(S(=O)(=O)c2c(C)sc3ncn(CC(=O)N(C)c4ccc(C(C)C)cc4)c(=O)c23)CC1,inactive
19,CCCCCCNC(=O)C(C#N)c1nc2ccccc2nc1N1CCOCC1 (configuration not stated),"inconclusive: 35.5 µM [inhibitor, partial curve]"
20,CC(=O)Nc1cccc(NC(=O)c2cc(-c3cccnc3)nc3ccc(Br)cc23)c1,"inconclusive: 11.2 µM [inhibitor, full curve, poor fit]"
21,Cc1ccc(S(=O)(=O)NCC2COc3ccccc3O2)cc1 (configuration not stated),"inconclusive: 25.1 µM [inhibitor, partial curve]"
22,Cc1ccc(-c2nc3ccccc3n2C)o1,"inconclusive: 44.7 µM [inhibitor, single point]"
23,CC1C/C(=N/N=C2/NC(=O)CS2)CC(C)(C)C1 (configuration not stated),"inconclusive: 28.2 µM [inhibitor, partial curve]"

row,Structure (SMILES),Potency
1,COc1ccc(CCNC(=O)C(C)n2nc(C)c3c(C)n(-c4ccc(C)cc4)nc3c2=O)c(OC)c1 (configuration not stated),"inconclusive: 25.1 µM [inhibitor, partial curve]"
2,O=S(=O)(NCC1CCCO1)c1cc(Cl)ccc1Cl (configuration not stated),"inconclusive: 39.8 µM [inhibitor, single point]"
3,CCOC(=O)C(CC)Sc1nc2c(c(=O)[nH]c(=O)n2C)n1CCc1ccccc1 (configuration not stated),"inconclusive: 44.7 µM [inhibitor, partial curve]"
4,Cc1ccc(C)c(N2CCN(C(=O)C3CCN(c4nc5ccc(C)cc5[nH]4)CC3)CC2)c1,"inconclusive: 10 µM [inhibitor, partial curve]"
5,O=C(CCCCCBr)N1CCC(CC2CC(c3cccc(Br)c3)=NO2)(C(=O)NCC2CCCCC2)CC1 (configuration not stated),inactive
6,CCOc1ccc(C(=O)CCN2CCCCCC2)cc1,inactive
7,CCc1cccc(NC(=O)CCC(=O)N2CCSc3ccccc32)c1,"inconclusive: 22.4 µM [inhibitor, partial curve] and inconclusive: 20 µM [inhibitor, partial curve]"
8,Cc1cccc(CCNC(=O)c2ccc3c(c2)N(Cc2ccccc2F)C(=O)c2ccccc2S3)c1,inactive
9,CCOc1[nH]n(-c2ccccc2)c(=O)c1C=Nc1ccc(OC)cc1,"inconclusive: 35.5 µM [inhibitor, partial curve]"
10,O=C(CSc1nnc(-c2cccnc2)n1Cc1ccco1)c1ccc(Cl)cc1,"inconclusive: 28.2 µM [inhibitor, partial curve]"
11,Cc1ccc(S(=O)(=O)Nc2cc3c(cc2NCc2ccccc2)n(C)c(=O)n3C)c(C)c1,inactive
12,CCOC(=O)N/N=C(C)/C=C/c1ccccc1,inactive
13,Cc1cccc(NC(=S)N(Cc2ccc(Cl)cc2)Cc2ccc(C(=O)O)cc2)c1,inactive
14,O=C(CCc1c[nH]c2ccccc12)N1CCCCCCC1,"inconclusive: 39.8 µM [inhibitor, partial curve]"
15,O=c1sc2ccccc2c(=O)n1Cc1ccccc1F,"inconclusive: 8.91 µM [inhibitor, partial curve]"
16,CCOc1ccc(-c2nc(CSCC(=O)N3CCN(c4ccc(F)cc4)CC3)c(C)o2)cc1,"inconclusive: 14.1 µM [inhibitor, partial curve]"
17,CN1CCc2c(sc3c2C(=O)NC(c2ccc(OC(=O)c4ccc(C(C)(C)C)cc4)cc2)N3)C1 (configuration not stated),"inconclusive: 35.5 µM [inhibitor, partial curve]"
18,c1ccc(-n2ncc3c(NCc4ccc5c(c4)OCO5)ncnc32)cc1,"inconclusive: 44.7 µM [inhibitor, single point]"
19,COc1cc(NC(=O)COc2cc(O)c3c(c2)OC(C)(C)CC3=O)cc(OC)c1OC,"inconclusive: 31.6 µM [inhibitor, partial curve]"
20,O=c1[nH]nc(SCc2ccccc2)c(=O)[nH]1,inactive
21,CCCc1nc2oc3c(NCCN4CCOCC4)ncnc3c2c2c1CCCC2,"inconclusive: 14.1 µM [inhibitor, partial curve]"
